In all, about 81,000 sequences were measured (“one-hybrid fitness for binding NBS DNA”: median about -0.1, highest 2% from about 0.36 on). The list shows a part of the results.
B1: Caulobacter ParB omega fusion; a variant is named by its letters at X, in order, B8GW30 (parent)
chain: MESVVVGEPGMSEGRRGLGRGLSALLGEVDAAPAQAPGEQLGGSREAPIEILQRNPDQPRRTFREEDLEDLSNSIREKGVLQPILVRPSPDTAGEYQIVAGERAWRAAQRAGLKTVPIMVRELDDLAVLEIGIIENVQRADLNVLEEALSYKVLMEKFERTQENIAQTIGKSXSHVANXMRLLXLPDEVQSYLVSGELTAXHARAIAAAADPVALAKQIIEGGLSVRETEALARKAPNLSAGKSKGGRPPRVKDTDTQALESDLSSVLGLDVSIDHRGSTGTLTITYATLEQLDDLCNRLTRGI

Variants of: B1
Assay: one-hybrid fitness for binding NBS DNA (the Noc-binding site; scaled: cognate 1, non-cognate 0); higher = stronger binding
Conditions: with NBS DNA site
In short: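 On M9-minus-histidine containing 0.1 mM IPTG and 5 mM 3-AT, E. coli USO cells with a HIS3 reporter, site 19 bp from the promoter, grew 48 hours at 37°C to select Caulobacter ParB libraries randomised at four specificity codons. Plasmids from before and after were Illumina-sequenced, with three replicate libraries pooled and variants under 10 reads left out. Fitness is the log change in variant-to-wild-type read ratio, rescaled against cognate and non-cognate.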

Variant | one-hybrid fitness for binding NBS DNA
LQNH | ≤ 0.2
PFWR | ≤ 0.2
TVTI | ≤ 0.2
GTCR | ≤ 0.2
AHHE | ≤ 0.2
PCTW | ≤ 0.2
WPSR | ≤ 0.2
QAKP | ≤ 0.2
RMPV | ≤ 0.2
QINY | ≤ 0.2
PAHT | ≤ 0.2
KLVR | ≤ 0.2
CYGR | ≤ 0.2
EMLQ | ≤ 0.2
PSCK | ≤ 0.2
LQAY | ≤ 0.2
PNFT | ≤ 0.2
TAPP | ≤ 0.2
PWNY | ≤ 0.2
TAPI | ≤ 0.2
AIPW | ≤ 0.2
RIMY | ≤ 0.2
MVCD | ≤ 0.2
PVMN | ≤ 0.2
VSKH | ≤ 0.2

Variant | one-hybrid fitness for binding NBS DNA
VRGM | ≤ 0.2
SRPP | ≤ 0.2
PHNW | ≤ 0.2
QIDG | ≤ 0.2
TTRL | ≤ 0.2
INVS | ≤ 0.2
AGWG | ≤ 0.2
DLQE | ≤ 0.2
RSMC | ≤ 0.2
DVRG | ≤ 0.2
AGCR | ≤ 0.2
QKMQ | ≤ 0.2
KSER | ≤ 0.2
KGKQ | ≤ 0.2
SSYA | ≤ 0.2
PCFS | ≤ 0.2
AYAK | ≤ 0.2
YFRG | ≤ 0.2
ADRF | ≤ 0.2
VMGY | ≤ 0.2
EVSM | ≤ 0.2
SPPY | ≤ 0.2
PMMN | ≤ 0.2
MWYT | ≤ 0.2
TQCC | ≤ 0.2

Variant | one-hybrid fitness for binding NBS DNA
DSTC | ≤ 0.2
QEYY | ≤ 0.2
RVWG | ≤ 0.2
AKAT | ≤ 0.2
KVTL | ≤ 0.2
HLKF | ≤ 0.2
GWVW | ≤ 0.2
KEDT | ≤ 0.2
PLKN | ≤ 0.2
RSMY | ≤ 0.2
KSAG | ≤ 0.2
KSAC | ≤ 0.2
TMKY | ≤ 0.2
IWWV | ≤ 0.2
QNSG | ≤ 0.2
DLGT | ≤ 0.2
RPYT | ≤ 0.2
PPKS | ≤ 0.2
QRSH | 0.522
VWGA | ≤ 0.2
NCYR | ≤ 0.2
RASI | ≤ 0.2
IAMG | ≤ 0.2
VRNE | ≤ 0.2
LEMT | ≤ 0.2

Variant | one-hybrid fitness for binding NBS DNA
SHEY | ≤ 0.2
SDML | ≤ 0.2
KENE | ≤ 0.2
QLIM | ≤ 0.2
LLHD | ≤ 0.2
AASI | ≤ 0.2
LNHF | ≤ 0.2
QAEC | ≤ 0.2
RTYL | ≤ 0.2
FWLC | ≤ 0.2
LCQR | ≤ 0.2
TATR | ≤ 0.2
PEEA | ≤ 0.2
HSGE | ≤ 0.2
WHQI | ≤ 0.2
WDIS | ≤ 0.2
RCMG | ≤ 0.2
HFRC | ≤ 0.2
PPWK | ≤ 0.2
PAMT | ≤ 0.2
QPQM | ≤ 0.2
MYRG | ≤ 0.2
YDME | ≤ 0.2
STTC | ≤ 0.2
VAYN | ≤ 0.2

Variant | one-hybrid fitness for binding NBS DNA
LLYA | ≤ 0.2
YSWS | ≤ 0.2
FWKG | ≤ 0.2
QNYR | 0.203
KDSG | ≤ 0.2
SSEG | ≤ 0.2
EASG | ≤ 0.2
APTI | ≤ 0.2
RFRR | 0.486
VKSK | ≤ 0.2
KHSN | ≤ 0.2
CVIG | ≤ 0.2
LYAI | ≤ 0.2
PRWG | ≤ 0.2
WWDS | ≤ 0.2
RPNI | ≤ 0.2
YSCG | ≤ 0.2
AFAR | ≤ 0.2
EDQD | ≤ 0.2
SSCS | ≤ 0.2
KNNS | ≤ 0.2
HTLS | ≤ 0.2
KKWR | ≤ 0.2
LITC | ≤ 0.2
PQNY | ≤ 0.2

Variant | one-hybrid fitness for binding NBS DNA
ILKS | ≤ 0.2
ALAV | ≤ 0.2
QRIN | ≤ 0.2
NYQT | ≤ 0.2
MPHS | ≤ 0.2
YCYT | ≤ 0.2
DIPR | ≤ 0.2
TCFF | ≤ 0.2
DMFV | ≤ 0.2
GTSV | ≤ 0.2
MSVI | ≤ 0.2
RNLH | ≤ 0.2
HKHR | ≤ 0.2
WRQY | ≤ 0.2
PQPQ | ≤ 0.2
YNID | ≤ 0.2
YPDS | ≤ 0.2
CNNT | ≤ 0.2
PFSY | ≤ 0.2
IQSC | ≤ 0.2
NVAR | ≤ 0.2
TKGG | ≤ 0.2
FITG | ≤ 0.2
TNGI | ≤ 0.2
RYPC | ≤ 0.2

Variant | one-hybrid fitness for binding NBS DNA
DCNA | ≤ 0.2
INAT | ≤ 0.2
WICR | ≤ 0.2
SATP | ≤ 0.2
ASHM | ≤ 0.2
PLGL | ≤ 0.2
TDSP | ≤ 0.2
NMMG | ≤ 0.2
TNQI | ≤ 0.2
VSHC | ≤ 0.2
YKDY | ≤ 0.2
DRCA | ≤ 0.2
QSMF | ≤ 0.2
RIFD | ≤ 0.2
SCYC | ≤ 0.2
CSMF | ≤ 0.2
KAHL | ≤ 0.2
RWLA | ≤ 0.2
VGCD | ≤ 0.2
ELYN | ≤ 0.2
DGHS | ≤ 0.2
QQAN | ≤ 0.2
DFMS | ≤ 0.2
CIQR | ≤ 0.2
FKRH | ≤ 0.2

Variant | one-hybrid fitness for binding NBS DNA
LCSV | ≤ 0.2
GMLY | ≤ 0.2
IGMG | ≤ 0.2
DAVE | ≤ 0.2
TPGG | ≤ 0.2
DRIL | ≤ 0.2
ETAC | ≤ 0.2
PYDT | ≤ 0.2
GSAV | ≤ 0.2
PDTV | ≤ 0.2
QVFN | ≤ 0.2
KLCY | ≤ 0.2
QYTP | ≤ 0.2
SHMA | ≤ 0.2
LRGT | ≤ 0.2
KDIE | ≤ 0.2
PKAI | ≤ 0.2
YSSN | ≤ 0.2
TQKM | ≤ 0.2
MGQR | ≤ 0.2

From a collection of fitness landscapes (doi:10.1016/j.celrep.2020.107928)
